This is an account of results in paper PMC4336329 (PLoS ONE, 2015).

Screen size: about 310,000 compounds; about 14,000 (4.5%) showed an effect of 50% or more. The effect is printed as a negative number. Some of the results follow.
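Also: peak tail current of the secondary pulse compared with the same well before compound.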

For the assay, the target named is human ether-à-go-go-related gene (hERG) potassium channel (human, UniProt Q12809). Briefly: primary screen, population patch clamp on CHO cells stably expressing hERG.
Chain of human ether-à-go-go-related gene (hERG) potassium channel (Q12809 whole entry, looked up): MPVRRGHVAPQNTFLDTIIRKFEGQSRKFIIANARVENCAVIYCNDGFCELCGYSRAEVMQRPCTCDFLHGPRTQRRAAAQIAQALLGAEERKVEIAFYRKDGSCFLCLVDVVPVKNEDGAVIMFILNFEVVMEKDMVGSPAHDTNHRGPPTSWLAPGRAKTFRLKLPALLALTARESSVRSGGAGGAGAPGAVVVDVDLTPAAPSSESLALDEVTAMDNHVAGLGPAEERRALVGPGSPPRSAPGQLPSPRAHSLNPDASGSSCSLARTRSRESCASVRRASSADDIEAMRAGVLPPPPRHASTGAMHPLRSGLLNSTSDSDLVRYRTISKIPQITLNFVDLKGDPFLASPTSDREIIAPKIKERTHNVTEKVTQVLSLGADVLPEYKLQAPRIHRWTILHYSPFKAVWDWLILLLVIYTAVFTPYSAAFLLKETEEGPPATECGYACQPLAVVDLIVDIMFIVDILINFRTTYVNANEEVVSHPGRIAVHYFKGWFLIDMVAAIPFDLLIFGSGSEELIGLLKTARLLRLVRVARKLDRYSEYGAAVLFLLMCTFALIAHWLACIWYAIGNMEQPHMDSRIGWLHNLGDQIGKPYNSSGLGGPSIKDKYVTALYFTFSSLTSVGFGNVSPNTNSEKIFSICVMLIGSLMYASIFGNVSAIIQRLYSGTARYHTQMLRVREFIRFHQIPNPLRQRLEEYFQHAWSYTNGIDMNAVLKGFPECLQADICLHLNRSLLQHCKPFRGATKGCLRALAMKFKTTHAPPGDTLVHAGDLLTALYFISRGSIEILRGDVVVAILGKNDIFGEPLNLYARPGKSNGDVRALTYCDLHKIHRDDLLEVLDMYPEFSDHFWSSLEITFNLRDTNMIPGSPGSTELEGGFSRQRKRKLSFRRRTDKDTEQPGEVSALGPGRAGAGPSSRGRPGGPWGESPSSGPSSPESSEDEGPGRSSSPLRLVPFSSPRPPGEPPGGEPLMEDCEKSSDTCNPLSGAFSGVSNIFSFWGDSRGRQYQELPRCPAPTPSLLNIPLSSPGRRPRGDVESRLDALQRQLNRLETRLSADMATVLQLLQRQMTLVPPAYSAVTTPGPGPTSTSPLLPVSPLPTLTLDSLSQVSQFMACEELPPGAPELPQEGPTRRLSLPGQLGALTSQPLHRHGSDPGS
`S=C(Nc1ccc(N2CCOCC2)cc1)Nc1ccc2nc(-c3ccco3)c(-c3ccco3)nc2c1`: the “hERG current change (%, negative = inhibition) at 10uM” value came out at 15.8%. For `Cc1ccc2c(c1)N(C(C)C(=O)NCCc1ccccc1)C(=O)CO2` (centres unmarked), the “hERG current change (%, negative = inhibition) at 10uM” value came to 7.21%.

For `O=c1[nH]c(SCCOc2cccc3ccccc23)nc2ccccc12`, the “hERG current change (%, negative = inhibition) at 10uM” value was 28.4%. As to `CC(C)=C1C(=O)NN(c2ccc(C)c(Cl)c2)C1=O`, the “hERG current change (%, negative = inhibition) at 10uM” value is 27.1%. Turning to `Cc1cccc(N2CCN(C(=O)CCc3nc4ccccc4[nH]3)CC2C)c1` (centres unmarked), the “hERG current change (%, negative = inhibition) at 10uM” value is -29.4%. Turning to `CCCCc1nc2cc(C(=O)N3CCCCC3C(=O)OC)ccc2o1` (centres unmarked), the “hERG current change (%, negative = inhibition) at 10uM” value is recorded as -3.84%. Take `COc1c(Br)cc([N+](=O)[O-])c(OC)c1C(=O)NC(=O)Nc1nc(C)cc(C)n1`: the “hERG current change (%, negative = inhibition) at 10uM” value is recorded as -22.4%.

`CCc1cccc2c(C(=O)C(NCCOC)c3ccccc3)c[nH]c12` (centres unmarked): the “hERG current change (%, negative = inhibition) at 10uM” value is given as 5.96%. As to `CCOC(=O)c1c(C)[nH]c(C2=NNC(=Nc3ccc(OCC)cc3)SC2)c1C`, the “hERG current change (%, negative = inhibition) at 10uM” value is on record as 20%. With `COc1cccc(NS(=O)(=O)c2ccc3c(c2)NC(=O)C(C)C(=O)N3)c1` (centres unmarked) the figure was 6.5%; with `CC(C)c1ccc(NC2CCCN(C(=O)CCN3Cc4ccccc4C3=O)C2)cc1` (centres unmarked), -30.5%; with `O=C(NCCCSc1ccccc1)c1cnc(Cl)c(Cl)c1`, 4.09%. Next, `CCN(C(=O)C(C)N1C(=O)/C(=C/c2ccco2)SC1=S)C1CCS(=O)(=O)C1` (centres unmarked): -19.3%. On to `C#CCOCCOCCOCCNc1nc(N2CCN(C(=O)[C@H](CCC(=O)O)n3cc(C(N)Cc4ccc(O)cc4)nn3)CC2)nc(N2CCN(C(=O)[C@H](CCC(=O)O)n3cc(C(N)CC(C)C)nn3)CC2)n1.Cl` (some centres unmarked), for which the “hERG current change (%, negative = inhibition) at 10uM” value amounted to 10.3%. In the case of `CCOc1ccc(-n2c(C)c(C(C)=O)c3cc(O)ccc32)cc1`, the “hERG current change (%, negative = inhibition) at 10uM” value is recorded as 4.4%.

As to `CCCn1c(SCC(=O)NC2CCC(C)CC2)n[nH]c1=O` (centres unmarked), the “hERG current change (%, negative = inhibition) at 10uM” value came to 19.6%. `Cc1ccc(S(=O)(=O)N2CCC(C(=O)NC3CCCCC3C)CC2)cc1` (centres unmarked): the “hERG current change (%, negative = inhibition) at 10uM” value amounted to 5.96%.

With `CC(Sc1ccccc1)C(=O)NCC(c1ccco1)N1CCCCC1` (centres unmarked), the “hERG current change (%, negative = inhibition) at 10uM” value was -9.36%. Take `Nc1[nH]ncc1-c1ccc(F)cc1`: the “hERG current change (%, negative = inhibition) at 10uM” value was 22.1%. On to `Cc1cccc(OCc2nnc(SCC(=O)Nc3ncc(C)s3)o2)c1`, for which the “hERG current change (%, negative = inhibition) at 10uM” value is reported as 31.5%. For the compound `O=C(NNCC(O)COc1ccccc1)c1ccccc1` (centres unmarked), the “hERG current change (%, negative = inhibition) at 10uM” value came out at 1.06%. Regarding `COc1ccccc1CNC(=O)[C@H](C)NC(=O)C1CCN(C(=O)[C@@H]2CCCN2C(=O)OC(C)(C)C)CC1`, the “hERG current change (%, negative = inhibition) at 10uM” value was determined as 1.52%. Regarding `Cc1[nH]c2c(Cl)cccc2c1CCNC(=O)C1CCCCC1C(=O)OCC(F)(F)F` (centres unmarked), the “hERG current change (%, negative = inhibition) at 10uM” value is -29.7%. Turning to `N#CCSc1ccsc1C(=O)Nc1ccc(F)cc1`, the “hERG current change (%, negative = inhibition) at 10uM” value was -13.5%. Consider `CCCOC(=O)c1ccc(O)c(OC)c1`, for which the “hERG current change (%, negative = inhibition) at 10uM” value came out at 29.1%. As to `O=S(=O)(c1ccccc1)c1nc(NC2CC2)sc1Cl`, the “hERG current change (%, negative = inhibition) at 10uM” value was determined as 7.78%.

For the compound `O=C(NCCc1ccc(C(F)(F)F)cc1)c1ccc(Cl)nc1`, the “hERG current change (%, negative = inhibition) at 10uM” value is -4.62%.

As for `COc1ccc(S(=O)(=O)N(C)CC(=O)Nc2ccccc2OC)cc1`, the “hERG current change (%, negative = inhibition) at 10uM” value is recorded as -15.8%. Next, `Cn1c(SCC(=O)N2CCN(Cc3ccccc3)CC2)nnc1-c1ccncc1`: -2.39%; `O=C(COC(=O)CSc1ccc(F)cc1)NNC(=O)c1ccc([N+](=O)[O-])cc1`: -30.2%. For `COc1ccc(/C=C(\C#N)C(=O)OCC(=O)Nc2ccc(C(C)(C)C)cc2)cc1`, the “hERG current change (%, negative = inhibition) at 10uM” value is 0.425%. With `Br.CC1CCN(CC(=O)c2ccccc2Cl)CC1` the figure was 12.3%. On to `CCN(CC)CCCN1C(=O)C(O)=C(C(=O)c2ccco2)C1c1ccc(OC(C)C)cc1` (centres unmarked), for which the “hERG current change (%, negative = inhibition) at 10uM” value was 1.11%. With `COC(=O)c1sccc1NC(=S)OC` the figure was 7.92%. In the case of `COc1ccc2[nH]c(C(=O)N3CCN(C)CC3)c(C)c2c1`, the “hERG current change (%, negative = inhibition) at 10uM” value is listed as 10.4%. Next, `COc1ccc(NC(=O)CN2CCN(CC(=O)Nc3ccc(F)cc3)CC2)c(OC)c1`: -80.4%; `COc1ccc(C2CC(=O)c3cnc(N4CCc5ccccc54)nc3C2)c(OC)c1` (centres unmarked): 10.8%.

In the case of `Oc1ccc(/C=N/Nc2ncc(Br)cn2)c(O)c1`, the “hERG current change (%, negative = inhibition) at 10uM” value worked out at 25%. On to `CCOc1ccc(/C=N/NC(=O)CN2CCCCC2)cc1OCC`, for which the “hERG current change (%, negative = inhibition) at 10uM” value came out at 11%.

Regarding `CSc1nc(C)cc(OCCO)n1`, the “hERG current change (%, negative = inhibition) at 10uM” value is listed as 13%. With `COc1ccc(-c2nc(CSCC(=O)NCC3CCCO3)c(C)o2)cc1OC` (centres unmarked) the figure was -8.6%; with `COc1ccccc1CCC(=O)OC(C)C(=O)Nc1c(C)n(C)n(-c2ccccc2)c1=O` (centres unmarked), 10.7%. On to `COC(=O)c1ccc(C)c(NC(=O)c2ccc(CN3CCc4ccccc4C3)cc2)c1`, for which the “hERG current change (%, negative = inhibition) at 10uM” value was 6.57%.

In the case of `COc1cc(NC(=O)c2onc(C)c2Cl)cc(OC)c1OC`, the “hERG current change (%, negative = inhibition) at 10uM” value is 11.3%. With `O=S(=O)(Nc1ccc(Oc2ncccn2)c(Cl)c1)c1ccc(F)cc1`, the “hERG current change (%, negative = inhibition) at 10uM” value stood at 2.03%.

Regarding `CCOC(=O)c1ccc(NC(=O)CSc2nc(N)c(NC(=O)c3ccc(Br)o3)c(=O)[nH]2)cc1`, the “hERG current change (%, negative = inhibition) at 10uM” value was found to be 15.2%.

As for `CCc1ccccc1NC(=S)N1CCCCCC1`, the “hERG current change (%, negative = inhibition) at 10uM” value came out at 15.7%.

For the compound `Cc1ccc2nc(-c3ccc(NC(=O)CN4C(=O)NC(C)(c5ccc(OC(F)F)cc5)C4=O)cc3)sc2c1` (centres unmarked), the “hERG current change (%, negative = inhibition) at 10uM” value worked out at 12.4%. Regarding `O=C(NCCc1ccccc1Cl)C1CCC(=O)N(Cc2ccc(Cl)cc2)C1` (centres unmarked), the “hERG current change (%, negative = inhibition) at 10uM” value is reported as -56.8%. As to `CC(=O)NS(=O)(=O)c1ccc(NC(=O)C(Sc2ccccc2)c2ccccc2)cc1` (centres unmarked), the “hERG current change (%, negative = inhibition) at 10uM” value is reported as 8.87%. On to `COc1ccccc1C1c2ccc3ccccc3c2Oc2ncn(CCN(C)C)c(=N)c21` (centres unmarked), for which the “hERG current change (%, negative = inhibition) at 10uM” value is reported as -61.8%. Take `CCOC(=O)c1cn(Cc2ccccc2)c(C(=O)OC(C)(C)C)c1O`: the “hERG current change (%, negative = inhibition) at 10uM” value is listed as -0.516%. In the case of `O=S(=O)(Cc1ccccc1)NCc1cccnc1`, the “hERG current change (%, negative = inhibition) at 10uM” value is on record as -13%.

In the case of `O=C(CNC(=O)c1ccccc1F)OCc1csc(-c2ccccc2)n1`, the “hERG current change (%, negative = inhibition) at 10uM” value is on record as 14.6%. Turning to `COc1cc(C(=O)O/N=C2/C=C(C)C(=O)C=C2C)cc(OC)c1OC`, the “hERG current change (%, negative = inhibition) at 10uM” value was 3.71%. On to `NS(=O)(=O)c1ccc(N=Nc2c(=O)[nH]n3c(=O)c4c([nH]c23)CCCC4)cc1`, for which the “hERG current change (%, negative = inhibition) at 10uM” value worked out at 12.7%.
